One test deals with granulocytes. The experiment in a line: Ratio of disease to normal enzyme activity, inflammatory diseases (Table 5), granulocytes. In kind it is cell-based, human.
The test system of a further test is monocytes. The test can be described thus: Ratio of disease to normal enzyme activity, inflammatory diseases (Table 5), monocytes. In kind it is cell-based, human.
Where [1] appears, read: Inflam. Bowel Dis., MONOCYTES section (column head Lymphs).

With `NCC(=O)Nc1ccc2c(c1)Oc1cc(NC(=O)CN)ccc1C21OC(=O)c2ccccc21` [GLY, (Gly)2 Rho 110], the Ratio disease/normal in the test on granulocytes (Dermatomyositis, Grans) was 1.12; in the test on granulocytes (Inflam. Bowel Dis., […]) it was 1.78; with granulocytes (Lupus, Grans), 1.42.

As to (Val-Lys)2 Rho 110 (modified) [VK--M], the Ratio disease/normal in the test on monocytes (Dermatomyositis, Monos) was found to be 3.45; with monocytes (setting [1]), 1.41; with monocytes (JRA, Monos), 3.49; in the test on monocytes (Kawasaki's Dis., Monos), 0.25; with monocytes (Lupus, Monos), 11.37; in the test on monocytes (Rheumatic Fever, Monos), 8.67. Moreover, the Ratio disease/normal in the test on granulocytes (Dermatomyositis, Grans) turned out to be 0.16; in the test on granulocytes (Inflam. Bowel Dis., […]), 0.64; with granulocytes (JRA, Grans) it was 9.49; in the test with granulocytes (Kawasaki's Dis., Grans), 0.72; in the test with granulocytes (Lupus, Grans) it was 0.89; in the test with granulocytes (Rheumatic Fever, Grans), 0.48.

“(carbobenzyloxycarbonyl-Gly-Pro)2 Rho 110 (modified) [Z--GP--M]”: the Ratio disease/normal is recorded as 3.05 in the test with monocytes (Dermatomyositis, Monos); 3.33 in the test with monocytes (setting [1]); 1.79 in the test with monocytes (JRA, Monos); 4.47 with monocytes (Kawasaki's Dis., Monos); 1.92 in the test on monocytes (Lupus, Monos); 2.99 in the test with monocytes (Rheumatic Fever, Monos). The Ratio disease/normal with granulocytes (Dermatomyositis, Grans) was found to be 2.76; in the test on granulocytes (Inflam. Bowel Dis., […]) it was 2.68; in the test on granulocytes (JRA, Grans), 1.46; with granulocytes (Kawasaki's Dis., Grans), 2.83; in the test with granulocytes (Lupus, Grans), 1.94; in the test on granulocytes (Rheumatic Fever, Grans), 2.98.
